From paper PMC11736144, “A sleepy cannabis constituent: cannabinol and its active metabolite influence sleep architecture in rats” (Neuropsychopharmacology, 2024)

Assay: Solubility in dosing vehicle
Details: 1:1:18 ethanol, Tween 80, 0.9% saline; 5 ml/kg; doses of 30 mg/kg and 100 mg/kg

Q: Which “solubility in vehicle at the required volumes” value does the source give for CCCCCc1cc(O)c2c(c1)OC(C)(C)c1ccc(C)cc1-2 [CBN, cannabinol] here?
A: insoluble
